The whole screen tested about 230,000 compounds, of which about 3,600 (1.6%) were called active. The inconclusive results got no clear call from the source; some entries with a clear call stand among them for comparison. Calls follow the shape of the dose curve; as a rule, active = well fitted inhibition curve with a large enough effect (not every such curve was filed as active); inconclusive = small, poorly fitted or top-dose-only effect, or another doubt; inactive = no such curve, though single readings can be large or run the other way. Potencies of inconclusive entries are doubtful fits and often do not repeat.
What follows are compounds tested against Lysine-specific demethylase 4E (Homo sapiens) (UniProt B2RXH2) (assay: qHTS Assay for Inhibitors of Human Jumonji Domain Containing 2E (JMJD2E)). Conditions: JMJD2E catalytic domain, FDH-coupled NADH fluorescence (FDH is formaldehyde dehydrogenase); series mostly up to 57.1 µM; activity change, negative = inhibition: at the top concentration.
Also: nearly all actives have a fitted effect of over 50% in size.
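For activity change, negative = inhibition in this document: 0% = wells with enzyme and -100% = buffer wells without enzyme.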
Potency is read from the fitted curve at half-maximal effect; tags tell the direction and shape of the fitted curve.

Sequence of UniProt B2RXH2 (B2RXH2 whole entry, looked up, the tested form may be a part): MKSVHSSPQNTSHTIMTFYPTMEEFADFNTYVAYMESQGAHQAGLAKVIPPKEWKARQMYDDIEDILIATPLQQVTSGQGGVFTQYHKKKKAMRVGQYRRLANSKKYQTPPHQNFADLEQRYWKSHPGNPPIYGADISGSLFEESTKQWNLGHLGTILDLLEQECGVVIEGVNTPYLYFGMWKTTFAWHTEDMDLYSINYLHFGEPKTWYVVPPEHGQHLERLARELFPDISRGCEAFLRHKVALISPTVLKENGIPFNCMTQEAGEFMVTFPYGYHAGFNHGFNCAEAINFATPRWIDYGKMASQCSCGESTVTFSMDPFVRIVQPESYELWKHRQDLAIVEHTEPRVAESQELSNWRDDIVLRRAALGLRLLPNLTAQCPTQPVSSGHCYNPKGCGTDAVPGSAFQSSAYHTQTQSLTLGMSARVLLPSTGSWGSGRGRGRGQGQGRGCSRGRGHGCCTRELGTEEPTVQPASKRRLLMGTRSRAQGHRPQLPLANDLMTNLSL

Row | Structure (SMILES) | Potency | activity change, negative = inhibition
1 | Cc1cccc(-n2c(O)c(C=Nc3ccccc3)c3ccccc3c2=O)n1 | inconclusive: 39.8 µM [inhibitor, single point] | –
2 | COc1ccc(-c2cc(=O)[nH]c(=O)[nH]2)cc1 | – | inactive: 11.6%
3 | Cc1ccc(S(=O)(=O)Nn2c(O)c(C=C3N=c4ccccc4=N3)sc2=S)cc1 | – | inactive: 9.79%
4 | O=[N+]([O-])c1ccc(NC2CCCC2)cc1 | – | inactive: 9.05%
5 | C=CCn1c(N)c(C(=O)OCC(C)C)c2nc3ccccc3nc21 | inconclusive: 25.1 µM [inhibitor, partial curve] | –
6 | CNc1oc(-c2ccccc2)nc1C#N | inconclusive: 28.2 µM [inhibitor, partial curve] | –
7 | CCCC1c2ccc(C)n2CCN1C(=O)Nc1ccccc1Cl (stereo unspecified) | inconclusive: 28.2 µM [inhibitor, partial curve] | –
8 | COc1ccc(-n2ncc3c(NC(C)C)ncnc32)cc1 | inconclusive: 35.5 µM [inhibitor, single point] | –
9 | CC(=O)COc1ccc2c3c(c(=O)oc2c1C)CCCCC3 | inconclusive: 31.6 µM [inhibitor, partial curve] | –
10 | N#CC1=C(N)Oc2c(ccc3cccnc23)C1c1ccccc1 (stereo unspecified) | inconclusive: 35.5 µM [inhibitor, single point] | –
11 | COc1cccc(-c2cc3c(-n4cccc4)ncnc3o2)c1 | inconclusive: 35.5 µM [inhibitor, partial curve] | –
12 | COc1ccc(OC)c(CN2CCC(CO)(CCOc3ccccc3)CC2)c1 | – | inactive: 1.64%
13 | COc1ccccc1NS(=O)(=O)c1ccc(N/N=C/c2ccccc2OCC(=O)O)c([N+](=O)[O-])c1 | – | inactive: -8.59%
14 | CC(=O)Nc1ccc2nc(-c3cccs3)[nH]c2c1 | inconclusive: 31.6 µM [inhibitor, partial curve] | –
15 | COc1cc(CNc2ccccc2SC)cc(OC)c1OC | inconclusive: 39.8 µM [inhibitor, single point] | –
16 | Cc1ccccc1NNC(=O)C(=O)NNc1ccccc1C | inconclusive: 22.4 µM [inhibitor, single point] | –
17 | CC(C)(C)NC(=O)Nc1ccc2nccnc2c1 | inconclusive: 28.2 µM [inhibitor, partial curve] | –
18 | Cc1ccc(-c2nn3c(C)nnc3c3ccccc23)cc1S(=O)(=O)NCc1ccccc1 | inconclusive: 35.5 µM [inhibitor, single point] | –
19 | O=C(CSc1nnc(NC(=O)c2ccc(S(=O)(=O)N3CCOCC3)cc2)s1)Nc1ccccc1C(F)(F)F | inconclusive: 35.5 µM [inhibitor, single point] | –
20 | CCN1/C(=C/C=C/c2oc3ccc(-c4ccccc4)cc3[n+]2CC)Oc2ccc(-c3ccccc3)cc21 | active: 7.94 µM | –
21 | Cn1ccnc1SCC(=O)Nc1cccc(C(F)(F)F)c1 | inconclusive: 25.1 µM [inhibitor, single point] | –
22 | COC(=O)Nc1sc2c(c1C(=O)N1CCOCC1)CCC(C)C2 (stereo unspecified) | inconclusive: 39.8 µM [inhibitor, single point] | –
23 | COc1cccc(/C=N/NC(=O)c2c(C)nc3ccc(Br)cn23)c1O | inconclusive: 25.1 µM [inhibitor, single point] | –
24 | O=C(CSc1nc(-c2ccccc2)cs1)NCc1ccco1 | – | inactive: -2.81%

Row | Structure (SMILES) | Potency | activity change, negative = inhibition
25 | COC(=O)c1c(NC(=O)/C=C/C(=O)O)sc(C)c1-c1ccc(C(C)C)cc1 | – | inactive: -8.49%
26 | Cc1cnc(C(=O)N2CCCC(C(=O)c3ccc(C(C)(C)C)cc3)C2)cn1 (stereo unspecified) | – | inactive: -2.82%
27 | Cn1c(=O)c2c(nc(N3CCCCCC3)n2Cc2cccc3ccccc23)n(C)c1=O | – | inactive: -1.21%
28 | CCn1c(SCC(=O)NC2CCCCC2)nnc1-c1cc2cccc(OC)c2o1 | inconclusive: 39.8 µM [inhibitor, single point] | –
29 | Cc1ccc([N+](=O)[O-])cc1S(=O)(=O)NCCc1c(C)[nH]c2ccccc12 | – | inactive: 2.42%
30 | Cc1cc(C)c(Cn2cnc3ccccc32)c(C)c1 | – | inactive: 16.3%
31 | Cc1ccc(NC(=O)CSc2ncc(S(=O)(=O)c3ccccc3)c(=O)[nH]2)cc1C | inconclusive: 39.8 µM [inhibitor, single point] | –
32 | Cc1nccc(-c2ccc3c(c2)OCO3)n1 | inconclusive: 28.2 µM [inhibitor, partial curve] | –
33 | CC(=O)Nc1ccc2ccc3cccc4ccc1c2c34 | inconclusive: 20 µM [inhibitor, partial curve] | –
34 | Cc1ccc(C(=O)Nc2ccc3c(c2)OCO3)cc1 | – | inactive: 3.97%
35 | O=C(CSc1nnnn1-c1ccccc1)N1CCc2ccccc21 | – | inactive: 3.66%
36 | CCCN1CCC(NC(=O)Nc2cccc3ccccc23)CC1 | inconclusive: 28.2 µM [inhibitor, partial curve] | –
37 | Oc1cccc(/C=N/NC(=S)Nc2cccnc2)c1O | active: 22.4 µM | –
38 | COc1cc(C2C(C#N)=C(N)Oc3cc(C)n(CC4CCCO4)c(=O)c32)cc2c1OCO2 (stereo unspecified) | – | inactive: -24%
39 | CCOC(=O)C1=C(C)NC(C)=C(C(=O)OCC)C1C(=O)OCC(=O)NC | inconclusive: 28.2 µM [inhibitor, partial curve] | –
40 | Cc1c(NC(=O)/C=C/c2cn(-c3ccccc3)nc2-c2ccccc2)c(=O)n(-c2ccccc2)n1C | inconclusive: 39.8 µM [inhibitor, single point] | –
41 | O=C(CNC(=O)/C=C/c1ccccc1)N=Nc1c(O)n(Cc2ccccc2)c2ccccc12 | – | inactive: 2.04%
42 | CCCCN(CC)CCCNC(=O)c1cc2cc3ccc(OC)cc3nc2o1 | inconclusive: 31.6 µM [inhibitor, partial curve] | –
43 | COC(=O)c1sc2nc3c(cc2c1N)CCCC3 | inconclusive: 28.2 µM [inhibitor, partial curve] | –
44 | COc1cc(OC)cc(C(=O)NNC(=O)c2ccccn2)c1 | inconclusive: 25.1 µM [inhibitor, single point] | –
45 | O=C(NCCCO)C(=O)NCCc1ccc(Cl)cc1 | – | inactive: 5.71%
46 | O=C(O)/C=C\C(=O)NNC(=O)c1cc(-c2ccccc2)n[nH]1 | inconclusive: 39.8 µM [inhibitor, single point] | –
47 | CC(C)[C@@H](CC(=O)N[C@@H]1CCCC[C@H]1C(=O)N[C@H](CC(=O)N[C@@H](CCC(=O)O)CC(=O)O)Cc1ccccc1)NC(=O)C[C@H](Cc1c[nH]c2ccccc12)NC(=O)[C@@H]1CCCC[C@H]1N | – | inactive: -22.1%
48 | CCOC(=O)C1CCCN(c2nc3ccccc3nc2C(C#N)C(=O)OC(C)C)C1 (stereo unspecified) | inconclusive: 39.8 µM [inhibitor, single point] | –

Row | Structure (SMILES) | Potency | activity change, negative = inhibition
49 | Cc1cc(C)c(C#N)c(N2CCC(C(N)=O)CC2)n1 | inconclusive: 31.6 µM [inhibitor, partial curve] | –
50 | COc1ccc(/C=N/NC(=O)c2ccc(CN3c4cccc5cccc(c45)S3(=O)=O)cc2)cc1 | inconclusive: 28.2 µM [inhibitor, partial curve] | –
51 | COCCn1nnnc1CN1CCN(c2cccc(C(F)(F)F)c2)CC1 | – | inactive: -9.07%
52 | Cc1cc(C)n2ncc(C(=O)NCc3ccccc3)c2n1 | inconclusive: 28.2 µM [inhibitor, partial curve] | –
53 | COc1cc2c(cc1OC)CN(CC(=O)Nc1ccc(C#N)cc1)CC2 | inconclusive: 31.6 µM [inhibitor, partial curve] | –
54 | Cc1sc2nc(CSCC(=O)NC(C)(C)C)[nH]c(=O)c2c1C | inconclusive: 35.5 µM [inhibitor, single point] | –
55 | Oc1c(C(c2ccco2)N2CCC3(CC2)OCCO3)sc2ncnn12 (stereo unspecified) | inconclusive: 39.8 µM [inhibitor, single point] | –
56 | CC(C)(C)C(=O)Nc1sc2c(c1-c1nc3ccccc3[nH]1)CCCC2 | inconclusive: 35.5 µM [inhibitor, single point] | –
57 | Cc1ccc(CSc2nnc(SCC(=O)N/N=C/C=C/c3ccccc3[N+](=O)[O-])s2)cc1 | – | inactive: -8.76%
58 | CCNC(=S)NS(=O)(=O)c1ccc(C)cc1 | – | inactive: -1.21%
59 | O=C1c2ccccc2NC(c2ccc(F)cc2)N1Cc1ccco1 (stereo unspecified) | inconclusive: 31.6 µM [inhibitor, partial curve] | –
60 | COC(=O)c1[nH]c2ccc(C)cc2c1NC(=O)CN1CCN(Cc2ccccc2)CC1 | inconclusive: 35.5 µM [inhibitor, partial curve] | –
61 | COCCCNC(=S)NCCNc1nc2cc(C)c(C)cc2cc1C#N | inconclusive: 28.2 µM [inhibitor, partial curve] | –
62 | Cc1c(CCC(=O)O)c(=O)oc2cc3oc4c(c3cc12)CCCC4 | inconclusive: 28.2 µM [inhibitor, partial curve] | –
63 | CCOC(=O)C1CCCN(c2c(N3CCN(c4ccccn4)CC3)c(=O)c2=O)C1 (stereo unspecified) | – | inactive: -2.71%
64 | O=C(CSc1ccc2ccccc2c1)NCCc1ccc(O)c(O)c1 | inconclusive: 14.1 µM [inhibitor, partial curve, poor fit] | –
65 | C#C[C@@]1(O)CCC2C3CCc4cc(O)ccc4C3CC[C@@]21C (stereo partly specified) | – | inactive: 2.49%
66 | O=[N+]([O-])c1ccc(C[n+]2ccc(Cc3ccccc3)cc2)cc1 | inconclusive: 39.8 µM [inhibitor, single point] | –
67 | CC1CCN(c2c(NCC3CCC(C(=O)N4CCc5ccccc5C4)CC3)c(=O)c2=O)CC1 (stereo unspecified) | – | inactive: 4.95%
68 | CC(C)(C)c1cc2cccnc2n1Cc1ccccc1 | inconclusive: 25.1 µM [inhibitor, single point] | –
69 | Cc1ccc(-c2csc3nc(-c4ccncc4)[nH]c(=O)c23)cc1 | inconclusive: 17.8 µM [inhibitor, partial curve] | –
70 | Cc1cnc2ncc3sccc3c2c1 | inconclusive: 25.1 µM [inhibitor, single point] | –
71 | N[C@]1(C(=O)O)CCc2cc(C(=O)O)ccc21 | inconclusive: 20 µM [inhibitor, partial curve] | –

Reference: PubChem BioAssay AID2147 (National Center for Advancing Translational Sciences (NCATS), 2009)
